Test results: the supplement of paper PMC3334620
In all, about 33,000 sequences were measured (“E-score (-0.5 to 0.5)”: median about -0.036, highest 2% from about 0.37 on). Some of the results follow.

Target: T1, Yer064c (UniProt P40041)
T1 sequence: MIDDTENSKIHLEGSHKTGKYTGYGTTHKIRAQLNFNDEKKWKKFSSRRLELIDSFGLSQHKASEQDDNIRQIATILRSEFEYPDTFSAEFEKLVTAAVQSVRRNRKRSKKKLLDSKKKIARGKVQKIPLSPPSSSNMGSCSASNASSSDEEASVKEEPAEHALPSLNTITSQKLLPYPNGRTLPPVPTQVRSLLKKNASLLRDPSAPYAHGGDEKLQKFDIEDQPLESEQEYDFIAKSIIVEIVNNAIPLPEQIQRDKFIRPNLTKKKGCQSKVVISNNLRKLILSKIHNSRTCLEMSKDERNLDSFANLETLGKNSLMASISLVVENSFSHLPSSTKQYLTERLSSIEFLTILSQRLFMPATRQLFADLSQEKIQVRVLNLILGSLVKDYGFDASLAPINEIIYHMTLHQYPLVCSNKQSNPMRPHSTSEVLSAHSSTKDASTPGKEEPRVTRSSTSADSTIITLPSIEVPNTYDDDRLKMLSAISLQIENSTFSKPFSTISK
Assay: PBM E-score (8-mer binding enrichment) (E-score (-0.5 to 0.5)); higher = stronger / more preferred TF binding; most listed sequences are background and not binding sites
Settings: protein concentration: 200 nM; construct: GST-full length
Procedure, shortened: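 Detection of bound protein used fluorescent anti-GST, with scans normalised by masliner. The proteins were GST-tagged yeast transcription factors applied at about 100-200 nM to universal all-10-mer Agilent arrays made double-stranded by primer extension. Each ungapped eight-base word, pooled with its reverse complement, was scored with an E-score from the Universal PBM Analysis Suite.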

Sequence	PBM E-score
ATCGCGGA	-0.0108
ACAGGTAT	-0.13
AGAAGATG	-0.0613
ACCACTCC	-0.202
CCATGTTC	-0.128
AGATCCGG	-0.242
GACGCGAA	-0.0422
AAAAGAAT	-0.057
ACGCACGT	-0.182
ACGATAGA	-0.0655
TCTAAAAA	0.107
ACCTTTTC	0.122
CTGCAGTA	0.0872
CCCGCCGC	-0.118
TGAAAGAA	0.176
GTTTGACA	0.0291
CGGGTAGA	-0.155
AAGGGGAG	-0.0644
CATCACCA	-0.0269
CCTCCACG	-0.0173
ATTTGCGA	-0.0454
GCCGCAGC	-0.127
ACCTCATG	-0.159
GGAGAATA	0.0358
GTTTTAAA	0.0848

Sequence	PBM E-score
GCGGGTGA	0.188
CGTGCGGC	-0.109
CAGAAGCG	-0.0432
ACCGTAGC	-0.0264
GTGTCCAA	-0.0522
GTAATTAC	0.00874
TAGTTGCA	-0.0728
CGTCAACC	-0.225
GATATTTA	0.00233
CCACGACA	-0.139
CAGGGAGG	-0.129
CTGTTATC	-0.0697
ACGCTGGA	-0.0542
AAACGTCA	-0.121
CCACTACG	-0.0486
GGTGGGCA	-0.269
GAGACAGA	0.0413
ATTCGGTC	-0.119
CAACGCGA	-0.0437
ACCGCGCA	-0.135
GTTGGCCA	-0.141
GAACGAGA	0.0156
ACGGACGC	-0.0198
ATCATCAG	0.186
TATGTAAA	0.0283

Sequence	PBM E-score
CCGGCGCG	-0.165
CCGCTTCG	-0.332
CGGTTGGA	-0.296
AACAAGCA	-0.143
AGTATCAA	0.211
ATTGCAGG	0.00385
TTTACAAA	-0.0598
ATTGAAAT	0.139
AGATGGTG	-0.147
AGGGCTGA	0.187
TACACATA	0.199
AGGTAGCG	-0.191
GAGGATAA	-0.0753
ACTGAACA	0.175
GCATATGC	-0.246
ACGCCGGC	-0.109
AGCAAGAG	-0.0205
AAGTAAAT	0.00185
ATGGACAC	0.0425
CTGCTTTC	-0.0573
AGGGCCGA	0.0374
ACGCGGCA	-0.341
CGGTAGCA	-0.0626
CAGGATGC	-0.25
GAAAAGAA	-0.178

Sequence	PBM E-score
AAGCATGC	-0.129
AGCTGTGC	-0.223
CGACTAAG	0.399
GGCACACC	-0.301
ATTTTCCC	-0.214
GTATTTAA	-0.0173
TCTACGAA	0.0737
TCTGCAGA	0.172
AGATCTAG	-0.14
ATTTGATA	0.169
AGCATACT	-0.101
CCATACTA	0.0172
CTCGTACC	-0.0914
GCCTCGAC	-0.235
ACGTAAGG	0.0173
AGTGGGAG	-0.0674
AGTGTCGC	-0.00958
ACAACCTG	-0.087
ATAGATAT	-0.0311
ATACACCA	0.0312
CTACCGAC	-0.128
ATTTTGAC	0.175
GCCCAGCC	-0.298
AAAACGGT	-0.155
GACTATAA	0.389

Sequence	PBM E-score
ACTGATCC	0.177
AACCACCC	0.14
AATCACAG	0.359
CAATTACG	0.0589
AAACAAAT	0.123
GCAAAACC	-0.109
CTGAAACC	0.0165
CCCTAGAA	-0.24
ACACGTAT	-0.0726
CAGAACGG	-0.0244
CGTCCCGA	-0.158
AAGTACCT	-0.093
CGAAATTC	-0.245
ATGCTGGC	-0.175
ACGATCAC	-0.076
CGGAAATA	0.0101
AACTGCTT	-0.116
AATAGCCC	-0.188
ATTGGTTA	0.0687
TACGCGGA	0.0427
ACGCCGCG	-0.279
AGAATGTA	-0.0771
GGTTGCAA	-0.0993
CCCGAACA	-0.0615
AGGGCGAT	-0.0756

Sequence	PBM E-score
CCATATCC	-0.26
GCCTTCGC	-0.141
CGTGCGAA	-0.165
GGTACGTA	0.00178
CAAGGCAA	-0.116
ACCCAAAA	-0.0796
ACCCGGCG	-0.173
TATATACA	0.113
AGCAGACT	0.206
CAGACTGA	0.134
CTATTTCC	-0.168
ACATACGT	-0.112
CACACCCC	-0.052
AGGGGGTG	-0.178
ATAGGTCA	0.1
ACAATGAC	0.255
GAATTTAC	-0.162
CGCCTGAA	-0.117
ACAGGCTG	0.0126
GACAAGGC	-0.143
ACGGGAAA	-0.111
AATAACTG	0.0476
GCTCGAGC	-0.142
ACCATTAT	-0.103
CGCGTCGC	-0.139

Sequence	PBM E-score
AAGGTAAA	-0.0345
TGACATAA	0.0718
AACAATCT	-0.0771
TATTAACA	0.0799
AGAAGTGG	-0.224
GCACCTAA	-0.0313
AGTCGGTG	0.274
AATGCGAG	-0.0423
CACGATGG	-0.0596
ACGCGAAT	0.0131
GGACTAGA	0.0793
ATGAAGGC	-0.153
CTTAACCA	0.197
AGATGACC	0.136
ACATGTAT	0.0408
CGCAAGCA	0.0122
CGCCCTCA	-0.254
TAAACGAA	-0.0847
ACCGCAGG	-0.0456
AACTTCTT	0.0156
AACATAGA	-0.0377
CATGTGAC	0.234
GGACCCGA	-0.0905
GTGACAAA	-0.129
TCGTGAAA	-0.0516

Sequence	PBM E-score
TAAATACA	0.00626
AACTCTCG	-0.105
TGTGCTAA	0.0249
GGACTTTA	0.0759
AACCTTAG	0.018
AGGCGTCG	-0.28
CAGTTATG	0.0856
AGTATGCG	-0.121
CCCCGCCA	-0.14
AGACTTAT	0.208
GCACCCGA	-0.206
AAATAATA	0.137
AACGTGCT	-0.238
CGGCAGAC	-0.0424
ACCAACGG	-0.309
AGCGGTTG	-0.0774
AGCAGGGG	-0.282
ATGGTGCC	-0.358
CTGTGCTC	-0.0234
GAACTCAA	0.145
AGCGGCTG	-0.17
GAAAGGGA	-0.165
GCACTAAC	-0.183
ATCCTGGC	-0.15
AATTCAGC	-0.175

Sequence	PBM E-score
AATTTTGT	0.161
AGCACGAC	-0.0281
CACAGTCC	0.132
CCACTGTA	-0.0726
AATCGGAC	0.00956
AAGTCCAC	-0.0143
GCGTATCA	-0.00444
CAGCGGCA	-0.135
GGCGTGAA	-0.0487
ACTGAGCG	0.023
ACCAGTGA	0.192
CTAGCCTC	-0.167
GAATTGAA	-0.0107
CGACTTGA	0.0865
CACACTAG	0.0144
ACGACGTG	-0.036
TGACAGCA	0.0239
ACGAATGA	0.152
GGCTACAA	0.115
ATCGGAAA	0.0651
GCCTACCC	-0.178
GTTCAAGA	0.0547
ATGGAGCA	-0.08
CCGCCGTC	0.0187
GCCCTACC	-0.203

Sequence	PBM E-score
AACTCCTC	-0.169
GCGGCATA	-0.154
TAATGAAA	0.103
TACTTACA	-0.0596
CAGGCGAG	-0.0443
AGGACATC	-0.377
CGCGCAGA	-0.059
ATGGTGGG	-0.221
TACGCATA	-0.0887
TATCGAAA	0.00852
CTTGTCGC	-0.202
ACTGAGAT	0.133
AGGGAACA	-0.149
AACTAAAG	0.0976
AAATATGG	-0.0617
CTTGGGCC	-0.202
ATCAAGGG	0.18
GTATCAAC	0.065
CAGGATTA	0.12
ACGACGAT	0.023
CGAGCACC	-0.1
CCTGACTC	0.481
CATCTTCA	-0.0602
CAGAGATG	-0.0466
AGACCTTC	-0.306

Sequence	PBM E-score
GCCCATCA	-0.183
AACTGAAA	-0.018
CTCTCGCA	0.158
CCCAAGAC	0.0557
GCGCCCGC	-0.309
GCGATCCC	-0.123
GCAAGAAC	0.0319
CCAGCGCG	-0.179
CATCGGTC	-0.0673
TCAATTGA	0.165
CAGAAATA	-0.0853
CTCCGAAG	-0.0766
AACGGCAC	-0.179
GAGCTCGA	0.038
ATGCCCTC	-0.0925
CCTTTGTC	-0.106
ATCATCGC	0.239
CTACAGAA	0.113
CCCTTGTA	-0.261
CAGAGATC	-0.184
TCCGGGAA	-0.103
GTGATTTA	0.35
TAGGCACA	-0.226
AATCGTGG	0.117
CCCTCACG	-0.109

Sequence	PBM E-score
AATTTTTG	0.0648
ATCCAGTA	-0.00593
AGACGACG	-0.265
GGGTTGAC	0.193
AAAAGGAG	-0.108
GCATGCCC	-0.0887
AAGCACGG	-0.314
TGAGGACA	-0.178
AAGTCAAA	0.288
GCTCGCAC	-0.24
TCTAACCA	0.117
CGGCCGGA	-0.19
CCTACAGC	-0.0789
AAACATTA	-0.0151
CCCACAGG	-0.12
CCGCTTAG	-0.0707
ACGCACTA	-0.101
AGCGCGGA	-0.0767
CTTTGCCC	-0.264
AGACCCCC	-0.38
ATCTATTA	-0.00516
ATGTATGG	-0.153
CCCCTGAA	-0.18
CATCCAAG	-0.0881
AAGGGTAG	-0.127

Sequence	PBM E-score
CCTTCAAG	-0.0863
AGCACGAT	-0.0349
GCTAGTTA	0.00744
CAACTCAC	0.224
GCAGAATA	-0.133
ACGAGCCC	-0.216
TGAACAAA	-0.159
ATACCGAA	-0.099
ATTCTATG	-0.0597
AGGATATG	-0.217
CAGTCTGG	-0.101
ATACGGGC	-0.205
ATGTTCAA	-0.00212
CGAAAGCC	-0.268
CCGCCTTA	-0.211
CAGGTTGG	-0.126
ACAATGCA	0.0215
CCGCACGG	-0.24
CGTGGTTA	0.236
AGTCCGTC	0.126
AAGACACG	-0.0488
AAGTTCCT	-0.196
AGTACTAA	0.239
AGATTCCA	0.0276
ATAGTAGA	-0.0439

Sequence	PBM E-score
ACGATGCA	-0.119
AGTATCTG	-0.0902
ACTGTTGA	0.111
TATATGAA	0.226
GAGGTATA	0.165
GGCCAACC	-0.207
TATACGAA	0.0616
AATGATAA	0.0741
ACACTCCT	-0.0508
AATTCCAC	-0.0666
ATGGGGCG	-0.111
TCTGGCCA	-0.057
GCGATACC	-0.165
CCTTAGCA	-0.152
AGAACTGA	0.178
ATCGACGC	-0.136
GGCCAGAC	-0.205
ATTTAGTA	0.253
GCGGTTGA	0.13
